Test results taken from the supplement of paper PMC10126150.
Sequences with one replicate were seen in a single cluster, so their values are uncertain.

System: ATP
Assay: switch fluorescence ratio, 500 uM ATP over buffer (Cy3 cluster intensity, sum of 5 cycles each) (fold (ratio)); higher = stronger signal-on switching upon ATP binding; sequences stand for … in TCGTCGGCAGCGTCAGATGTGTATAAGAGACAGTTTTTTTTTTTTTTTTTTTTTTTTT…TC
Details: aptamer strand: ATP DNA aptamer (quencher-CACCTGGGGGAGTATTGCGGAGGAAGG + anchor), 100 nM annealed; ATP concentration: 500 uM; one replicate
Method in brief: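 The fluorescence ratio divides summed target-cycle Cy3 intensity by summed buffer-cycle Cy3 intensity for each cluster and is averaged per switch-domain sequence. Cy3-labelled switching-strand clusters on a modified Illumina MiSeq flow-cell were annealed to 100 nM quencher-labelled ATP aptamer, then imaged in selection buffer and again after 15 min with 500 uM ATP at 22 °C. Five such cycles were run, with NaOH stripping and re-annealing between them, and clusters outside 100-1000 RFU were excluded.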
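Note: ATP exposure 15 min at 22 °C before imaging.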

Sequence | switch fluorescence ratio
ACTATACTTA | 1.24
GTTAGTTTAG | 0.987
GTGCGGACGG | 0.982
GGGTGCTGAC | 0.956
ATAGAGATGG | 1.03
AGTTTTACCG | 0.948
ACGAATAGAG | 1.05
AACCTCGGGG | 0.966
GGTCTGAGAA | 0.997
ACGCACAAAA | 1.45
CCCTCGATGA | 1.02
AGATGTTATA | 1.01
TTTCACGGAC | 1.58
GGCGTTGGCG | 1.03
GACCGACTAG | 1.12
TACGCCTCAT | 1.09
TAATATTCGT | 0.973
GACAATCAAG | 0.998
ACGTATGTGT | 1.08
TGAGCTATCG | 0.974
GGATGCCCCG | 0.954
CATCATTAGG | 1.05
TTACCCTGTG | 1.06

Sequence | switch fluorescence ratio
TATATAAAAA | 1.05
GGCGGTACGA | 1.02
GCAAATAATC | 0.971
GGGCCATGGG | 1.09
TCGTCACGTC | 1.02
TATCCTTAGA | 0.992
TCAAATAGAT | 0.999
CCGCGGCACG | 1.5
CCGTTCCGAG | 1.89
TGTTTTACGC | 1.05
ACTATCATAC | 1.21
GGGACTCAAA | 0.961
GGCGAGTTGC | 0.99
CTTAAGTCGC | 1
AAATAGAGC | 1.05
AAATTCTTTG | 0.995
ATTGTTCGTG | 1.01
CAACGTGATA | 1.36
TTGGAACCTG | 1.11
AGGGATCAG | 1.02
CTTCTAACCC | 1.04
TGGAGGCACG | 1.05
TAACATCTCA | 1.01

Sequence | switch fluorescence ratio
ACGACAACAG | 1.23
TGGCGTCCAG | 0.994
ATGCAAATTT | 1.02
CTTGTTATAG | 1.02
AGTTCGGCCC | 0.971
TATCGAGCAC | 1.4
GGATGTGCTC | 1
TGGGTGCGTT | 1.01
CTAGTTGTTG | 0.957
CAAGTCGAAA | 1
GCGCCACTT | 1.01
TCAAGCTATT | 0.953
GGACGACGGG | 1.02
GGGAAACCGC | 1.34
CCATGTCACT | 0.967
CATTTTCCTG | 1.04
ATCTGATAGT | 1.04
GAGCTTGATA | 1.04
ATAGCATGGT | 0.994
GGGTTCAAAA | 1.01
ATGCTCACTT | 1.01
GATGGTTGGT | 1.01
ATGCAAAAGT | 1.07

Sequence | switch fluorescence ratio
ACTAGTCTGC | 0.998
GGAGTAATGA | 2.04
CATATCAATG | 1.01
CAGCTGGGCT | 0.978
GAGAACGCAT | 1.31
AACTTATGGC | 0.957
TCACCGTAGT | 1.13
TGCGCACTTA | 1.01
AACAAAAAAC | 1.09
TAGCCCTGTA | 0.962
AGACGTTTT | 0.996
TAAAGATTAC | 1.05
CGAAAGGGG | 1.02
ATTGTGTGAT | 0.971
GCTTTCCCGT | 1.08
AGCATAACTT | 1.06
TCCATTAACG | 1.02
CCAATGATTC | 1.04
CTATACTCTC | 1.18
GTCACTAGGC | 1.01
TGTGATCGGA | 1.03
GTCCTCTATA | 1.04
TTGCCAGGTC | 1.01

Sequence | switch fluorescence ratio
TCTTCAGGAG | 1.19
TCGGCATGGT | 1.02
TGGATGTAAA | 0.99
TGCGCAAGTA | 1.1
GAGTTAACGA | 1.01
GGGATCACAA | 1.01
AGATGGCGA | 1
TGCCATTATG | 1.04
GCAGCCATGA | 1.06
TATTCTTTTG | 0.978
TCTTTGCTGT | 0.949
TGAGATGTGT | 1.15
CATGTTATAT | 0.999
TACGATGCTG | 1.07
CCTCCTCCC | 3.22
GTGGGCAGGC | 0.948
GGCGATTACG | 1.03
GTGGTCGATA | 1.01
GGAGGTGAGC | 0.971
GGTGCTTCGC | 0.938
TTTAACCTTA | 1.14
CCCGGTGCAG | 1.08
ATAATACCCG | 1.05

Sequence | switch fluorescence ratio
CCCTAACTTT | 1.03
ACACGATTTG | 1.02
GTTTTTCATG | 0.99
GGGAAGTGAT | 1.02
AGGTCAATTG | 1.02
AATGTTGCTT | 1.01
GCATTCTTGT | 1.02
CCTTCCCGTG | 2.12
TAAATGACGC | 1.12
AATCCACGGA | 1.1
CGTGATTGTA | 1.02
GGGAGGTCGA | 1.02
GGTGGTTGAC | 1.05
TCTGAGA | 0.989
CGTGTCACCA | 1
AAATTATTTG | 1.05
CTTCTTTTCC | 1.03
TGGCTATCAG | 1.01
AAATAGTAAC | 1.05
TGATCGAATT | 0.997
CGCATCGCTC | 1.57
TCTGTTGCCG | 0.967
GATAGAGACC | 1.03

Sequence | switch fluorescence ratio
CCGAGCTGTT | 1.19
AATCATAAA | 0.982
TAGAATTTCA | 0.995
TGTGAATGGA | 0.961
ATAGAACGA | 1.04
TAATTGCCGT | 1.02
AATCAGGGGC | 1.05
GTAGATATGG | 1.02
AGTCGGTGAG | 0.984
CGGGCCCGTC | 0.997
CAAGGCGCTG | 0.963
CAGACGAGTG | 1.02
CGAGCAGCCT | 1.1
CGAGTAACAG | 1.01
GGAGTGTCGC | 1.04
ATACGCACGG | 1.56
CGTTTGCCTC | 0.926
GTCATAGCAC | 1.02
TATGCATGC | 1.05
